Data reported in PubChem BioAssay AID588855 (National Center for Advancing Translational Sciences (NCATS), 2011).
The campaign covered roughly 410,000 compounds. About 5,000 (1.2%) were called active. The inconclusive results got no clear call from the source; some entries with a clear call stand among them for comparison. The call rests on the fitted dose curve; in most records, active means well fitted inhibition curve with a large enough effect; inconclusive means small, poorly fitted or top-dose-only effect; inactive means no such curve, though single readings can be large or run the other way. Potencies of inconclusive entries are doubtful fits and often do not repeat.

assay: qHTS for Inhibitors of TGF-b; conditions: HepG2 CAGA-GFP TGF-b/SMAD3 reporter, GFP fluorescence, 18 h, TGF-beta stimulated, 500 pg/mL final; series mostly up to 46.1 µM; activity, negative = inhibition: at the top concentration; further: nearly all actives have a fitted effect of over 65% in size
How it was run: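 Smad-responsive CAGA-GFP expression was quantified in HEPG2 cells exposed to compounds and 500 pg/mL final TGF-beta for 18 h at 37 degrees C; unstimulated wells defined full inhibition.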
On the % scale 0 is the no-effect control and ±100 the full control effect; potency means the concentration at half of the fitted maximal effect; tags describe the fitted curve by direction and shape.

Compound	Potency	activity, negative = inhibition
O=C(NCc1ccccc1)Nc1cccn(Cc2c(F)cccc2Cl)c1=O	inconclusive: 35.5 µM [inhibitor, single point]	–
CCc1ccc(C2CC(=O)c3c([nH]c(C(=O)OCC4CCCCC4)c3C)C2)cc1 (centres undefined)	–	inactive: 10.2%
Cc1c(Cl)cccc1NC(=O)CSc1ncnc2c1sc1ccccc12	–	inactive: -0.986%
Cc1cccc(CNC(=O)c2oc3c(c2C)-c2nn(Cc4ccccc4Cl)cc2CC3)c1	inconclusive: 35.5 µM [inhibitor, single point]	–
CCCCCCCCCC[n+]1ccc(/C=C/c2ccc(N(C)C)cc2)c2ccccc21	inconclusive: 35.5 µM [inhibitor, partial curve, poor fit]	–
COc1ccccc1N1CCN(C(=O)c2oc3cc(C)c(C)cc3c2C)CC1	inconclusive: 35.5 µM [inhibitor, partial curve, poor fit]	–
COc1cccc(/C=N/Nc2cc(C)nc(-c3ccccc3O)n2)c1O	inconclusive: 12.6 µM [inhibitor, partial curve, poor fit]	–
Cn1nc(-c2ccccc2)cc1NC(=O)c1ccc(Cl)cc1	–	inactive: 5.21%
CC(C)(C)c1cc(C(=O)Nc2cccnc2)cc(C(=O)Nc2cccnc2)c1	–	inactive: -11.7%
O=C1CC2(CCCC2)C(=O)N1CN1CCN(S(=O)(=O)c2ccc(F)cc2F)CC1	inconclusive: 3.16 µM [inhibitor, single point]	–
Fc1cc(F)cc(Nc2nc(Cl)nc(NC3CCCC3)n2)c1	inconclusive: 20 µM [inhibitor, partial curve, poor fit]	–
CCCCC(=O)N=c1sc2cc(S(C)(=O)=O)ccc2n1C	inconclusive: 35.5 µM [inhibitor, single point]	–
CCNC(=S)N(CCc1c(C)[nH]c2ccc(C)cc12)Cc1ccco1	inconclusive: 10 µM [inhibitor, partial curve]	–
COC(=O)c1c(C)cccc1C1CN=NC12Cc1ccccc1C2=O (centres undefined)	–	inactive: 0%
CSc1ncc(C(=O)Nc2ccccc2C(=O)c2ccccc2)c(C(F)(F)F)n1	inconclusive: 35.5 µM [inhibitor, single point]	–
CCOC(=O)c1cccc(NC(=O)c2cc3c(=O)n(Cc4ccccc4)ccc3nc2C)c1	inconclusive: 35.5 µM [inhibitor, single point]	–
Nc1nc(Nc2cccc(Cl)c2)nc(NCc2ccco2)c1[N+](=O)[O-]	inconclusive: 11.2 µM [inhibitor, single point]	–
CCOc1ccc(NC(=O)CN(C)C(=O)c2cc(-c3ccncc3)nc3ccccc23)cc1OCC	inconclusive: 6.31 µM [inhibitor, single point]	–
Fc1ccc(-n2cc(-c3ccccc3)c3c(NC4CCCCC4)ncnc32)cc1	–	inactive: -0.433%
CC(C)(C)NC(=O)CSc1nc2ccc(NC(=O)CSc3nnc(N)s3)cc2s1	–	inactive: -17.1%
COc1cc(/C=C/C(=O)Nc2ccncc2)cc(OC)c1OC	–	inactive: -34.2%
COc1ccc(C2NC(=O)c3sc4nc(C)c(C(C)=O)c(-c5ccc(Cl)cc5)c4c3N2)cc1 (centres undefined)	–	inactive: -4.83%

Compound	Potency	activity, negative = inhibition
CC[C@H](C)[C@@H](N)C(=O)NC[C@H]1O[C@@H](n2cnc3c(=O)[nH]c(N)nc32)[C@H](O)[C@@H]1O	inconclusive: 6.31 µM [inhibitor, single point]	–
Cc1ccccc1OCC(=O)N/N=C/c1cccc2cccnc12	inconclusive: 10 µM [inhibitor, partial curve]	–
Cc1nc(-c2cccc(S(=O)(=O)N3CCCCC3)c2)cs1	inconclusive: 0.891 µM [inhibitor, partial curve, poor fit]	–
COc1ccc(OC)c(/C=C2\Oc3cc(OCC(=O)N4CCC[C@H]4C(=O)O)ccc3C2=O)c1	–	inactive: 39.9%
CCNC(=O)C1CCCN(Cc2ccc(C)c3ccccc23)CC1 (centres undefined)	–	inactive: 0.687%
O=C(CCN1C(=O)/C(=C/c2cccs2)SC1=S)N1CCCCC1	inconclusive: 7.08 µM [inhibitor, partial curve, poor fit]	–
Cc1cc(C)cc(C(=O)NC(=S)Nc2ccc(-c3cc4ccccc4oc3=O)cc2)c1	–	inactive: 1.98%
COc1cccc(/C=N/NC(=O)c2cc3c(OC)c(OC)ccc3[nH]2)c1OC	–	inactive: 9.32%
CCOC(=O)N1CCC(=NNC(=O)c2ccc(O)cc2)CC1	inconclusive: 25.1 µM [inhibitor, single point]	–
COc1ccc(C(=O)/C=C/c2cn(CC(O)CN3CCN(C)CC3)c3ccccc23)cc1OC (centres undefined)	inconclusive: 22.4 µM [inhibitor, partial curve, poor fit]	–
CCCc1cc(=O)[nH]c(Nc2cccc(Cl)c2Cl)n1	inconclusive: 11.2 µM [inhibitor, partial curve, poor fit]	–
Cc1ccc(N/C=C(\C#N)c2ccc(OCCCF)cc2)cc1	inconclusive: 35.5 µM [inhibitor, single point]	–
CC(O)(c1ccccc1)c1nc(-c2cccc(C(F)(F)F)c2)cs1 (centres undefined)	inconclusive: 35.5 µM [inhibitor, single point]	–
O=c1cc(CN2CCN(c3ccccc3)CC2)nc2scc(-c3ccccc3)n12	–	inactive: 0%
Fc1ccc(N/N=C/c2cccnc2)c(F)c1	–	inactive: 1.6%
O=C(O)c1cccc2c1C(=O)c1ccc(Cl)cc1S2(=O)=O	inconclusive: 3.98 µM [inhibitor, full curve, poor fit]	–
NC(=S)N/N=C1\CC(c2ccc3c(c2)OCCCO3)Oc2ccc(F)cc21 (centres undefined)	inconclusive: 11.2 µM [inhibitor, single point]	–
O=C(NN=Cc1cc(=O)[nH]c(=O)[nH]1)c1ccncc1	–	inactive: -2.48%
O=C(O)CCC1(C(=O)O)CCC(=O)c2ccccc21 (centres undefined)	inconclusive: 0.562 µM [inhibitor, partial curve, poor fit]	–
O=C(CC1Sc2ccc(C(F)(F)F)cc2NC1=O)Nc1ccc(Cl)c(C(F)(F)F)c1 (centres undefined)	active: 14.1 µM	–
COc1cccc(S(=O)(=O)N(C)C[C@@H]2OCc3cnnn3CCCC(=O)N([C@H](C)CO)C[C@H]2C)c1	–	inactive: 1.99%
CC(C)C(=O)N1CCN(c2nc(-c3ccccc3)c3c(c2C#N)CCCC3)CC1	inconclusive: 35.5 µM [inhibitor, single point]	–
